In general, IC50 refers to the concentration that gives 50% inhibition.

Results on 23 compounds are retold here after patent US11618753B2 (priority 2018, dated 2023).

For this experiment, the system named is MLKL phosphorylation, HT29-L23 human colorectal adenocarcinoma cells. Briefly: cells. Conditions: read-out: pMLKL HCS Cell Assay (IC50, uM).
Consider `COc1c(F)cc(-c2cc(C(F)(F)F)c3c(N)ncnn23)cc1C(=O)N[C@@H]1CN(C(=O)c2ccccc2F)C[C@@H]1F` [Example 681, 5-[4-amino-5-(trifluoromethyl)pyrrolo[2,1-f][1,2,4]triazin-7-yl]-3-fluoro-N-[(3R,4S)-4-fluoro-1-(2-fluorobenzoyl)pyrrolidin-3-yl]-2-methoxybenzamide], for which the IC50 is 0.019 µM. For `CC(CC(=O)N1C[C@H](F)[C@H](NC(=O)c2cc(-c3cc(C(F)(F)F)c4c(N)ncnn34)ccc2OC(F)(F)F)C1)C(F)(F)F` (stereo partly drawn) [Example 1050, 5-[4-amino-5-(trifluoromethyl)pyrrolo[2,1-f][1,2,4]triazin-7-yl]-N-[(3R,4S)-4-fluoro-1-(4,4,4-trifluoro-3-methylbutanoyl)pyrrolidin-3-yl]-2-(trifluoromethoxy)benzamide], the 50% inhibitory concentration (IC50) turned out to be 0.07 µM. The same measure for `COc1ncc(-c2cc(CN3CCC(F)(F)CC3)c3c(N)ncnn23)cc1C(=O)N[C@@H]1CN(C(=O)c2ccncc2)C[C@@H]1F` [Example 1237, 5-{4-amino-5-[(4,4-difluoropiperidin-1-yl)methyl]pyrrolo[2,1-f][1,2,4]triazin-7-yl}-N-[(3R,4S)-4-fluoro-1-(pyridine-4-carbonyl)pyrrolidin-3-yl]-2-methoxypyridine-3-carboxamide]: 0.0009 µM; for `COc1ncc(-c2cc(CN3CCC(F)(F)CC3)c3c(N)ncnn23)cc1C(=O)N[C@@H]1CN(C(=O)CC(O)(C(F)(F)F)C(F)(F)F)C[C@@H]1F` [Example 1556, 5-{4-amino-5-[(4,4-difluoropiperidin-1-yl)methyl]pyrrolo[2,1-f][1,2,4]triazin-7-yl}-N-[(3R,4S)-4-fluoro-1-[4,4,4-trifluoro-3-hydroxy-3-(trifluoromethyl)butanoyl]pyrrolidin-3-yl]-2-methoxypyridine-3-carboxamide]: 0.0035 µM; for `COc1ncc(-c2cc(C(F)(F)F)c3c(N)ncnn23)cc1C(=O)N[C@@H]1CN(C(=O)C(C)(C)OCC(F)F)C[C@@H]1F` [Example 1217, 5-[4-amino-5-(trifluoromethyl)pyrrolo[2,1-f][1,2,4]triazin-7-yl]-N-[(3R,4S)-1-[2-(2,2-difluoroethoxy)-2-methylpropanoyl]-4-fluoropyrrolidin-3-yl]-2-methoxypyridine-3-carboxamide]: 0.067 µM. To `Cc1nc(C)c(-c2cc(C(F)(F)F)c3c(N)ncnn23)cc1C(=O)N[C@@H]1CN(C(=O)c2ccccc2F)C[C@@H]1F` [Example 1190, 5-[4-amino-5-(trifluoromethyl)pyrrolo[2,1-f][1,2,4]triazin-7-yl]-N-[(3R,4S)-4-fluoro-1-(2-fluorobenzoyl]pyrrolidin-3-yl]-2,6-dimethylpyridine-3-carboxamide] belongs 0.012 µM.

With `Nc1ncnn2c(-c3ccc(Cl)c(C(=O)N[C@@H]4CN(C(=O)c5c(F)cccc5F)C[C@@H]4F)c3)cc(C(F)(F)F)c12` [Example 964, 5-[4-amino-5-(trifluoromethyl)pyrrolo[2,1-f][1,2,4]triazin-7-yl]-2-chloro-N-[(3R,4S)-1-(2,6-difluorobenzoyl)-4-fluoropyrrolidin-3-yl]benzamide], the IC50 amounted to 0.0082 µM. To `Cc1ccc(-c2cc(C(F)(F)F)c3c(N)ncnn23)cc1C(=O)N[C@@H]1CN(C(=O)CC(O)(C(F)(F)F)C(F)(F)F)C[C@@H]1F` [Example 994, 5-[4-amino-5-(trifluoromethyl)pyrrolo[2,1-f][1,2,4]triazin-7-yl]-N-[(3R,4S)-4-fluoro-1-[4,4,4-trifluoro-3-hydroxy-3-(trifluoromethyl)butanoyl]pyrrolidin-3-yl]-2-methylbenzamide] belongs 0.0013 µM; to `COc1ncc(-c2cc(CN3CCC(F)(F)CC3)c3c(N)ncnn23)cc1C(=O)N[C@@H]1CN(C(=O)c2ncccc2F)C[C@@H]1F` [Example 1269, 5-{4-amino-5-[(4,4-difluoropiperidin-1-yl)methyl]pyrrolo[2,1-f][1,2,4]triazin-7-yl}-N-[(3R,4S)-4-fluoro-1-(3-fluoropyridine-2-carbonyl)pyrrolidin-3-yl]-2-methoxypyridine-3-carboxamide], 0.003 µM; to `CC(O)(CC(=O)N1C[C@H](F)[C@H](NC(=O)c2cc(-c3cc(C(F)(F)F)c4c(N)ncnn34)ccc2CF)C1)C(F)(F)F` (stereo partly drawn) [Example 919, 5-[4-amino-5-(trifluoromethyl)pyrrolo[2,1-f][1,2,4]triazin-7-yl]-N-[(3R,4S)-4-fluoro-1-(4,4,4-trifluoro-3-hydroxy-3-methylbutanoyl)pyrrolidin-3-yl]-2-(fluoromethyl)benzamide], 0.0032 µM. In the case of `CC(O)(CC(=O)N1C[C@H](F)[C@H](NC(=O)c2cc(-c3cc(C(F)(F)F)c4c(N)ncnn34)cc(F)c2CF)C1)C(F)(F)F` (stereo partly drawn) [Example 621, 5-[4-amino-5-(trifluoromethyl)pyrrolo[2,1-f][1,2,4]triazin-7-yl]-3-fluoro-N-[(3R,4S)-4-fluoro-1-(4,4,4-trifluoro-3-hydroxy-3-methylbutanoyl)pyrrolidin-3-yl]-2-(fluoromethyl)benzamide], the half-inhibitory concentration (IC50) worked out at 0.0016 µM. To `COc1cc(F)c(-c2cc(C(F)(F)F)c3c(N)ncnn23)cc1C(=O)N[C@@H]1CN(C(=O)CC(O)(C(F)(F)F)C(F)(F)F)C[C@@H]1F` [Example 565, 5-(4-amino-5-(trifluoromethyl)pyrrolo[2,1-f][1,2,4]triazin-7-yl)-4-fluoro-N-((3R,4S)-4-fluoro-1-(4,4,4-trifluoro-3-hydroxy-3-(trifluoromethyl)butanoyl)pyrrolidin-3-yl)-2-methoxybenzamide] belongs 0.0029 µM. For the compound `COc1ncc(-c2cc(C(F)(F)F)c3c(N)ncnn23)cc1C(=O)N[C@@H]1CN(S(=O)(=O)Cc2cccc(Cl)c2)C[C@@H]1F` [Example 1491, 5-[4-amino-5-(trifluoromethyl)pyrrolo[2,1-f][1,2,4]triazin-7-yl]-N-[(3R,4S)-1-[(3-chlorophenyl)methanesulfonyl]-4-fluoropyrrolidin-3-yl]-2-methoxypyridine-3-carboxamide], the 50% inhibitory concentration (IC50) is 0.064 µM. For `Nc1ncnn2c(-c3cccc(C(=O)N[C@@H]4CN(C(=O)[C@@H](O)C(F)(F)F)C[C@@H]4F)c3)cc(C(F)(F)F)c12` [Example 85, 3-[4-amino-5-(trifluoromethyl)pyrrolo[2,1-f][1,2,4]triazin-7-yl]-N-[(3R,4S)-4-fluoro-1-[(2R)-3,3,3-trifluoro-2-hydroxypropanoyl]pyrrolidin-3-yl]benzamide], the IC50 was determined as 0.363 µM. The same measure for `COc1ncc(-c2cc(C(F)(F)F)c3c(N)ncnn23)cc1C(=O)NC1CN(Cc2cccc(C#N)c2)CC1F` (racemic) [Example 227, 5-[4-amino-5-(trifluoromethyl)pyrrolo[2,1-f][1,2,4]triazin-7-yl]-N-{1-[(3-cyanophenyl)methyl]-4-fluoropyrrolidin-3-yl}-2-methoxypyridine-3-carboxamide]: 0.0038 µM; for `COc1ncc(-c2cc(Cn3cncc3-c3ccccc3)c3c(N)ncnn23)cc1C(=O)N[C@@H]1CN(C(=O)C2CC(F)(F)C2)C[C@@H]1F` [Example 1713, 5-(4-amino-5-((5-phenyl-1H-imidazol-1-yl)methyl)pyrrolo[2,1-f][1,2,4]triazin-7-yl)-N-((3R,4S)-1-(3,3-difluorocyclobutane-1-carbonyl)-4-fluoropyrrolidin-3-yl)-2-methoxynicotinamide]: 0.143 µM. `CCc1ccc(-c2cc(C(F)(F)F)c3c(N)ncnn23)c(F)c1C(=O)N[C@@H]1CN(C(=O)C2CCC(F)(F)CC2)C[C@@H]1F` [Example 739, 3-[4-amino-5-(trifluoromethyl)pyrrolo[2,1-f][1,2,4]triazin-7-yl]-N-[(3R,4S)-1-(4,4-difluorocyclohexanecarbonyl)-4-fluoropyrrolidin-3-yl]-6-ethyl-2-fluorobenzamide]: the IC50 was determined as 0.223 µM.

Turning to `COc1ncc(-c2c(C#N)cc3c(N)ncnn23)cc1C(=O)N[C@@H]1CN(C(=O)C2CC2(F)F)C[C@@H]1F` (stereo partly drawn) [Example 551, 5-(4-amino-6-cyanopyrrolo[2,1-f][1,2,4]triazin-7-yl)-N-((3R,4S)-1-(2,2-difluorocyclopropane-1-carbonyl)-4-fluoropyrrolidin-3-yl)-2-methoxynicotinamide], the half-inhibitory concentration (IC50) worked out at 0.532 µM.

Take `COc1ncc(-c2cc(CN3CCC(F)(F)CC3)c3c(N)ncnn23)cc1C(=O)N[C@@H]1CN(C(=O)OCC2CC2)C[C@@H]1F` [Example 1517, cyclopropylmethyl (3R,4S)-3-(5-{4-amino-5-[(4,4-difluoropiperidin-1-yl)methyl]pyrrolo[2,1-f][1,2,4]triazin-7-yl}-2-methoxypyridine-3-amido)-4-fluoropyrrolidine-1-carboxylate]: the half-maximal inhibitory concentration (IC50) is 0.0011 µM. As for `COCC(C)OC(=O)N1C[C@H](F)[C@H](NC(=O)c2cc(-c3cc(C(F)(F)F)c4c(N)ncnn34)cnc2OC)C1` (stereo partly drawn) [Example 1429, 1-methoxypropan-2-yl (3R,4S)-3-{5-[4-amino-5-(trifluoromethyl)pyrrolo[2,1-f][1,2,4]triazin-7-yl]-2-methoxypyridine-3-amido}-4-fluoropyrrolidine-1-carboxylate], the half-inhibitory concentration (IC50) was 0.028 µM. To `Cc1ccc(-c2cc(C(F)(F)F)c3c(N)ncnn23)cc1C(=O)Nc1cn(C(c2ccccc2)C(F)(F)F)cn1` (centres unmarked) [Example 1800, 5-(4-amino-5-(trifluoromethyl)pyrrolo[2,1-f][1,2,4]triazin-7-yl)-2-methyl-N-(1-(2,2,2-trifluoro-1-phenylethyl)-1H-imidazol-4-yl)benzamide] belongs 0.003 µM.

Turning to `COc1ncc(-c2cc(CN3CCC(F)(F)CC3)c3c(N)ncnn23)cc1C(=O)N[C@@H]1CN(C(=O)c2ccncc2Cl)C[C@@H]1F` [Example 1268, 5-{4-amino-5-[(4,4-difluoropiperidin-1-yl)methyl]pyrrolo[2,1-f][1,2,4]triazin-7-yl}-N-[(3R,4S)-1-(3-chloropyridine-4-carbonyl)-4-fluoropyrrolidin-3-yl]-2-methoxypyridine-3-carboxamide], the IC50 was found to be 0.0015 µM. To `COc1ncc(-c2c(C#N)cc3c(N)ncnn23)cc1C(=O)NCC[C@H](O)c1ccc(Cl)cc1` [Example 546, (S)-5-(4-amino-6-cyanopyrrolo[2,1-f][1,2,4]triazin-7-yl)-N-(3-(4-chlorophenyl)-3-hydroxypropyl)-2-methoxynicotinamide] belongs 0.107 µM.
